In US4904590A, “Antibiotic A80915 and process for its production” (Eli Lilly and Company, priority 1988, dated 1990):
≈ marks a conversion by molar mass, not a printed value.

Test system: Staphylococcus aureus S13E
Type: cell-based
Method: The A80915 antibiotics inhibit the growth of bacteria which are pathogenic to animal life. […] The MIC's in Table III were determined by conventional agar-dilution assays.

## C=C1CCC(Cl)C(C)(C)C1CC12OC(C)(C)C(Cl)CC1(Cl)C(=O)c1c(cc(O)c(C)c1O)C2=O (centres unmarked) [A80915A]
  MIC: 2 µg/mL (≈ 3.77 µM)

## Cc1c([O-])c([N+]#N)c2c(c1O)C(=O)[C@@]1(Cl)C[C@@H](Cl)C(C)(C)O[C@@]1(C[C@H]1C(C)(C)[C@@H](Cl)CC[C@]1(C)O)C2=O [A80915D]
  MIC: 1 µg/mL (≈ 1.74 µM)

## C=C1CCC(Cl)C(C)(C)C1CC12OC(C)(C)C(Cl)CC1(Cl)C(=O)c1c(O)c(C)c([O-])c([N+]#N)c1C2=O (centres unmarked) [A80915B]
  MIC: 2 µg/mL (≈ 3.6 µM)

## C=C1CCC(Cl)C(C)(C)C1CC12OC(C)(C)C(Cl)C=C1C(=O)c1c(cc(O)c(C)c1O)C2=O (centres unmarked) [Compound 5]
  MIC: 4 µg/mL (≈ 8.11 µM)

## Cc1c(O)cc2c(c1O)C(=O)[C@@]1(Cl)C[C@@H](Cl)C(C)(C)O[C@@]1(C[C@H]1C(C)(C)[C@@H](Cl)CC[C@]1(C)O)C2=O [A80915C]
  MIC: > 128 µg/mL
